Measurements published in patent EP0812825B1, “PROPENONE DERIVATIVES” (KYOWA HAKKO KOGYO CO., LTD., priority 1995, dated 1997).
The name of at least one read-out is uncertain.

Tested on: P388 mouse leukemia
Experiment: Effect upon P388 ascites tumor (increased life span)
Format: in vivo, CDF1 mice
Conditions: for ILS (%) five consec. admin.: consecutive 5 days from 24 hours after implantation; for ILS (%) single admin.: once 24 hours after implantation

CO/C(=C\c1c[nH]c2ccccc12)C(=O)c1cc(OC)c(OC)c(OC)c1 [Compound 1, (Z)-3-(Indol-3-yl)-2-methoxy-1-(3,4,5-trimethoxyphenyl)-2-propen-1-one]
ILS (%) five consec. admin. (dose 5.0 mg/kg): 50 ( 5.0) % | ILS (%) single admin. (dose 25 mg/kg): 67 ( 25) %

CCO/C(=C\c1c[nH]c2ccccc12)C(=O)c1cc(OC)c(OC)c(OC)c1 [Compound 2, (Z)-2-Ethoxy-3-(indol-3-yl)-1-(3,4,5-trimethoxyphenyl)-2-propen-1-one]
ILS (%) five consec. admin. (dose 10 mg/kg): 35 ( 10) % | ILS (%) single admin. (dose 50 mg/kg): 34 ( 50) %

CCCO/C(=C\c1c[nH]c2ccccc12)C(=O)c1cc(OC)c(OC)c(OC)c1 [Compound 3, (Z)-3-(Indol-3-yl)-2-propyloxy-1-(3,4,5-trimethoxyphenyl)-2-propen-1-one]
ILS (%) five consec. admin. (dose 13 mg/kg): 41 ( 13) % | ILS (%) single admin. (dose 50 mg/kg): 25 ( 50) %

COc1cc(C(=O)/C(=C/c2c[nH]c3ccccc23)Oc2ccc(Br)cc2)cc(OC)c1OC [Compound 8, (Z)-2-(4-Bromophenoxy)-3-(indol-3-yl)-1-(3,4,5-trimethoxyphenyl)-2-propen-1-one]
ILS (%) five consec. admin. (dose 50 mg/kg): 31 ( 50) % | ILS (%) single admin. (dose 200 mg/kg): 49 (200) %

COc1cc(C(=O)/C(=C/c2c[nH]c3ccccc23)SC)cc(OC)c1OC [Compound 9, (Z)-3-(Indol-3-yl)-2-methylthio-1-(3,4,5-trimethoxyphenyl)-2-propen-1-one]
ILS (%) five consec. admin. (dose 5.0 mg/kg): 33 ( 5.0) % | ILS (%) single admin. (dose 13 mg/kg): 18 ( 13) %

COc1cc(C(=O)/C(=C/c2c[nH]c3ccccc23)Sc2ccc(F)cc2)cc(OC)c1OC [Compound 11, (Z)-2-(4-Fluorophenylthio)-3-(indol-3-yl)-1-(3,4,5-trimethoxyphenyl)-2-propen-1-one]
ILS (%) five consec. admin. (dose 25 mg/kg): 47 ( 25) % | ILS (%) single admin. (dose 50 mg/kg): 38 ( 50) %

COc1cc(C(=O)/C(=C/c2c[nH]c3ccccc23)SCCO)cc(OC)c1OC [Compound 12, (Z)-2-(2-Hydroxyethylthio)-3-(indol-3-yl)-1-(3,4,5-trimethoxyphenyl)-2-propen-1-one]
ILS (%) five consec. admin. (dose 20 mg/kg): 52 ( 20) % | ILS (%) single admin. (dose 50 mg/kg): 20 ( 50) %

COc1cc(C(=O)/C(=C/c2c[nH]c3cc(C)ccc23)SCCO)cc(OC)c1OC [Compound 13, (Z)-2-(2-Hydroxyethylthio)-3-(6-methylindol-3-yl)-1-(3,4,5-trimethoxyphenyl)-2-propen-1-one]
ILS (%) five consec. admin. (dose 5.0 mg/kg): 67 ( 5.0) % | ILS (%) single admin. (dose 25 mg/kg): 40 ( 25) %

COc1cc(C(=O)/C(=C/c2c[nH]c3ccccc23)SCC(O)CO)cc(OC)c1OC (stereo not drawn) [Compound 21, (Z)-2-(2,3-Dihydroxypropylthio)-3-(indol-3-yl)-1-(3,4,5-trimethoxyphenyl)-2-propen-1-one]
ILS (%) five consec. admin. (dose 10 mg/kg): 74 ( 10) % | ILS (%) single admin. (dose 50 mg/kg): 48 ( 50) %

COc1cc(C(=O)/C(=C/c2c[nH]c3ccc(F)cc23)SCC(O)CO)cc(OC)c1OC (stereo not drawn) [Compound 27, (Z)-2-(2,3-Dihydroxypropylthio)-3-(5-fluoroindol-3-yl)-1-(3,4,5-trimethoxyphenyl)-2-propen-1-one]
ILS (%) five consec. admin. (dose 20 mg/kg): 99 ( 20) % | ILS (%) single admin. (dose 50 mg/kg): 65 ( 50) %

COc1cc(C(=O)/C(=C/c2c[nH]c3cc(C)ccc23)SCC(O)CO)cc(OC)c1OC (stereo not drawn) [Compound 28, (Z)-2-(2,3-Dihydroxypropylthio)-3-(6-methylindol-3-yl)-1-(3,4,5-trimethoxyphenyl)-2-propen-1-one]
ILS (%) five consec. admin. (dose 10 mg/kg): 54 ( 10) % | ILS (%) single admin. (dose 13 mg/kg): 24 ( 13) %

COc1cc(C(=O)/C(=C/c2c[nH]c3cc(Cl)ccc23)SCC(O)CO)cc(OC)c1OC (stereo not drawn) [Compound 31, (Z)-3-(6-Chloroindol-3-yl)-2-(2,3-dihydroxypropylthio)-1-(3,4,5-trimethoxyphenyl)-2-propen-1-one]
ILS (%) five consec. admin. (dose 20 mg/kg): 70 ( 20) % | ILS (%) single admin. (dose 50 mg/kg): 52 ( 50) %
